Results are given in words; binding and its absence hold for the method and conditions named. For some of these results: Binding seen in cells or lysates may run through a third protein. Some results given as binding are weak or reduced against the parent protein; the word gives no strength. For some of these results: Tags and fused reporters may be left off the sequences shown.
B1: COUP-TFII of K562 cells (protein, UniProt P24468 1-414)
chain: MAMVVSTWRDPQDEVPGSQGSQASQAPPVPGPPPGAPHTPQTPGQGGPASTPAQTAAGGQGGPGGPGSDKQQQQQHIECVVCGDKSSGKHYGQFTCEGCKSFFKRSVRRNLSYTCRANRNCPIDQHHRNQCQYCRLKKCLKVGMRREAVQRGRMPPTQPTHGQFALTNGDPLNCHSYLSGYISLLLRAEPYPTSRFGSQCMQPNNIMGIENICELAARMLFSAVEWARNIPFFPDLQITDQVALLRLTWSELFVLNAAQCSMPLHVAPLLAAAGLHASPMSADRVVAFMDHIRIFQEQVEKLKALHVDSAEYSCLKAIVLFTSDACGLSDVAHVESLQEKSQCALEEYVRSQYPNQPTRFGKLLLRLPSLRTVSSSVIEQLFFVRLVGKTPIETLIRDMLLSGSSFNWPYMAIQ
B2: NF-YB of K562 cells (protein, UniProt P25208 1-207)
chain: MTMDGDSSTTDASQLGISADYIGGSHYVIQPHDDTEDSMNDHEDTNGSKESFREQDIYLPIANVARIMKNAIPQTGKIAKDAKECVQECVSEFISFITSEASERCHQEKRKTINGEDILFAMSTLGFDSYVEPLKLYLQKFREAMKGEKGIGGAVTATDGLSEELTEEAFTNQLPAGLITTDGQQQNVMVYTTSYQQISGVQQIQFS
B3: tagged NF-YB isolated from transfected cells for the in vitro co-IP (protein, UniProt P25208 1-207)
chain: B2 chain
B4: tagged COUP-TFII isolated from transfected cells for the in vitro co-IP (protein, UniProt P24468 1-414)
chain: B1 chain

Protein sequences, listed by entry. Tags and fused reporters are not part of them.
UniProt P23511: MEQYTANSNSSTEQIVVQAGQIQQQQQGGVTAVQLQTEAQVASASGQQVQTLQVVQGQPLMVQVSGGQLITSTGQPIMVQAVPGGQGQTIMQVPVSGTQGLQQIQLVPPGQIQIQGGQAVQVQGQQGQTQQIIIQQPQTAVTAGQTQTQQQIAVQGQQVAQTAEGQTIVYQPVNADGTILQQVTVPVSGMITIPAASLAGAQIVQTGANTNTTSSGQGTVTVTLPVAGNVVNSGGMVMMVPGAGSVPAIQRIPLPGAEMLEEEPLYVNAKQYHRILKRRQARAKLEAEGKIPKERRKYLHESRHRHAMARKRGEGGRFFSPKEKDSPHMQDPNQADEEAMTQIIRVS
UniProt P23769: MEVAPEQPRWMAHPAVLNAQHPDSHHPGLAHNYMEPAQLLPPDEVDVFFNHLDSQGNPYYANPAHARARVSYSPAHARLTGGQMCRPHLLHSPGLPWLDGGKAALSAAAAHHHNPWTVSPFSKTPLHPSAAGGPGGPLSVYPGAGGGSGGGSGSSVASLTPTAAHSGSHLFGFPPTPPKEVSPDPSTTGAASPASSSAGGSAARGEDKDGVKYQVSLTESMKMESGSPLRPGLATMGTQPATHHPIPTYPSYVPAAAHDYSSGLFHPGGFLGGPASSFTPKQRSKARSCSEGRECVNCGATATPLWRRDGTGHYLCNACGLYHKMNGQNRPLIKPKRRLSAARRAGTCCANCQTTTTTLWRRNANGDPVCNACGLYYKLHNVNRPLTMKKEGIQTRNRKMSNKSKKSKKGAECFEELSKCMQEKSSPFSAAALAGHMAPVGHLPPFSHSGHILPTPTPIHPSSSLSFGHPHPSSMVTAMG
UniProt Q9H165: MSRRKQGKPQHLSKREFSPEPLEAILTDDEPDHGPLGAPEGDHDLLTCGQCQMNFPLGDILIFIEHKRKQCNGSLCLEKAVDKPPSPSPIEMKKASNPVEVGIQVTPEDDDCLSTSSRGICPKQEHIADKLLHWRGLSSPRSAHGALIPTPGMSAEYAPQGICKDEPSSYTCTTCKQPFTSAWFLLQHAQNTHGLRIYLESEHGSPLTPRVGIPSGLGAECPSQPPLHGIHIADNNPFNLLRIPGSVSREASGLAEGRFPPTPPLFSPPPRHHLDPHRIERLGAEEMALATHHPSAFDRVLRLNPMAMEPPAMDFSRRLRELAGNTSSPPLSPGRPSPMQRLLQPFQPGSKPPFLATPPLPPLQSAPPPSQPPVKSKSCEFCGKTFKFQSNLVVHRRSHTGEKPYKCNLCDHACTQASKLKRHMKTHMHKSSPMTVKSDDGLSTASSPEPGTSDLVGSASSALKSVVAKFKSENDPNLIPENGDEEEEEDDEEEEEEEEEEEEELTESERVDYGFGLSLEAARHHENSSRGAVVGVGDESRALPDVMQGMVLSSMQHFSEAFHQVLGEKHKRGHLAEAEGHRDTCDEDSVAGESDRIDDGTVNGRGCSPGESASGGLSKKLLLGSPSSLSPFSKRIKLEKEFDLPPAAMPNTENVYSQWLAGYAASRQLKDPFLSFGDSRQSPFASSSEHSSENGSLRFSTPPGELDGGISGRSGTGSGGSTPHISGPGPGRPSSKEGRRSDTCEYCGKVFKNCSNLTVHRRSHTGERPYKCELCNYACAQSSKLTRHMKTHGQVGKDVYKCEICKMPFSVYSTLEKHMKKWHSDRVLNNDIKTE
UniProt P15976: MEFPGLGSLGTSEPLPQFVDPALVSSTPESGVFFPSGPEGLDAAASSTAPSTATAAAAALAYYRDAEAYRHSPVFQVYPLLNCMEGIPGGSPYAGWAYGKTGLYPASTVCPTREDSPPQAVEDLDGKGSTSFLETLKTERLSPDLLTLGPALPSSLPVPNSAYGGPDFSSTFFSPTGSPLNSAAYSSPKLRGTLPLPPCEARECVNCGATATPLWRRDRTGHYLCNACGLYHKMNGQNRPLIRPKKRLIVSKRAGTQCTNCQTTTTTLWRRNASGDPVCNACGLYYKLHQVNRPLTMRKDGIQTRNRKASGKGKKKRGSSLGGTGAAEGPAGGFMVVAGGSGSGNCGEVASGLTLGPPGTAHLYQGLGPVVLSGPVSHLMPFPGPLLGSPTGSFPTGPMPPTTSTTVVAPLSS

Assays:
[1] = target: tagged NF-YA expressed from a plasmid transfected into K562 cells (UniProt P23511); assay: co-IP; in vivo co-IP: NF-YA, GATA-2, GATA-1 and BCL-XL expressed with different tags from plasmids separately transfected into K562 cells; pulled down by antibodies to the tags; associated proteins detected by Western blot
[2] = target: tagged GATA-2 expressed from a plasmid transfected into K562 cells (UniProt P23769); assay: as above
[3] = target: tagged BCL11A-XL expressed from a plasmid transfected into K562 cells (UniProt Q9H165); assay: as above
[4] = target: tagged GATA-1 expressed from a plasmid transfected into K562 cells (UniProt P15976); assay: as above
[5] = target: tagged BCL11A isolated from transfected cells for the in vitro co-IP (UniProt Q9H165); assay: co-IP; in vitro co-IP of individual pairs of differently tagged proteins expressed in and isolated from K562 and/or 293 cells; both purified

Binder | binding [1] | binding [2] | binding [3] | binding [4] | binding [5]
B1 | no binding | no binding | binds | no binding | –
B2 | – | – | binds | – | –
B3 | – | – | – | – | binds
B4 | – | – | – | – | binds
